Measured values from PubChem BioAssay AID504332 (National Center for Advancing Translational Sciences (NCATS), 2011).
In all, about 350,000 compounds went through this assay and about 31,000 (8.9%) were called active. The shares of active, inactive and inconclusive entries below differ from those in the screen. Calls come from the whole dose curve; as a rule, active = well fitted inhibition curve with a large enough effect; inconclusive = small, poorly fitted or top-dose-only effect; inactive = no such curve, though single readings can be large or run the other way. A potency beside an inconclusive call is a rough fit, not a confirmed value.

Each compound was assayed against Histone-lysine N-methyltransferase EHMT2 (Homo sapiens) (UniProt Q96KQ7) (assay: qHTS Assay for Inhibitors of Histone Lysine Methyltransferase G9a). Conditions: G9a H3K9 monomethylation, AlphaScreen, 2 h; activity, negative = inhibition: at 59 µM (top of the series) unless noted.
UniProt Q96KQ7, sequence (Q96KQ7 whole entry, looked up): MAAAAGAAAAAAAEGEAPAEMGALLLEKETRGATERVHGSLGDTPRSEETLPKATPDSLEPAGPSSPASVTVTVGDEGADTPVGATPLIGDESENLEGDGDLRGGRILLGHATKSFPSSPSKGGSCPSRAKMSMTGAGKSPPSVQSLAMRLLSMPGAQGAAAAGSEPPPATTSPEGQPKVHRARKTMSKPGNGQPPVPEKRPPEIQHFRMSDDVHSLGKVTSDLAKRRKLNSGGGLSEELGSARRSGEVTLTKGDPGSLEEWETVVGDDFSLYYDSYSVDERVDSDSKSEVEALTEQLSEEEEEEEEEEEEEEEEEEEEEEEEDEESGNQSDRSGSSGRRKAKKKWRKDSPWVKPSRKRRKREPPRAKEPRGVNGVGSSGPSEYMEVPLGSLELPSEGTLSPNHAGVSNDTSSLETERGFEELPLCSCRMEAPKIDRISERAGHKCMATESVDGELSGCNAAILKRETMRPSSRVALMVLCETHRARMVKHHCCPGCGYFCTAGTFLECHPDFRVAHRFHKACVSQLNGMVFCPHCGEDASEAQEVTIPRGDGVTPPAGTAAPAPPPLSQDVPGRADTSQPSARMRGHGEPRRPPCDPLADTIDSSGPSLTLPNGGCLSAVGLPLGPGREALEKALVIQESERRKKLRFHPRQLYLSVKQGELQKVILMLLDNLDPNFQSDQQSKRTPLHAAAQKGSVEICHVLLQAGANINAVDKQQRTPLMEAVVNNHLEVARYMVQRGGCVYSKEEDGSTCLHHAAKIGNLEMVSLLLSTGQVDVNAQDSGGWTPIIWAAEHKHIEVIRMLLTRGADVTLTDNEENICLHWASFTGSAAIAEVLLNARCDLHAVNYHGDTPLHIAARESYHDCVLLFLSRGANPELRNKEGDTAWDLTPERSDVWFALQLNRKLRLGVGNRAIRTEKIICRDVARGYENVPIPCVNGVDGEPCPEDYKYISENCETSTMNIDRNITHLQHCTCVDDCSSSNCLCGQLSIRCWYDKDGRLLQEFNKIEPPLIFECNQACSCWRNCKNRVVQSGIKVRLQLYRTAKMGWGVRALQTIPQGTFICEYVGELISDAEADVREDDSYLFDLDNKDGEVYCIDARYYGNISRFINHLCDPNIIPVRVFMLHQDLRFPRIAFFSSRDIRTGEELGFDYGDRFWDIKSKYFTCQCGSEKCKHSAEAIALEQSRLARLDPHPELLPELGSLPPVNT
Method in brief: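 AlphaScreen detection with an anti-monomethyl H3K9 antibody quantified product after a 2 h room-temperature reaction containing 500 nM biotinylated H3K9 peptide, 20 µM SAM and 20 nM enzyme, which had been preincubated 15 min with compound.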
% is set by controls: 0 for no effect and ±100 for the full control effect; potency is the fitted concentration of half-maximal effect; tags give direction and shape of the fitted curve.
Note: nearly all actives have a fitted effect of over 75% in size.

Structure (SMILES) | Potency | activity, negative = inhibition
COc1ccc2cc(CN(Cc3cccnc3)S(=O)(=O)c3ccccc3)c(=O)[nH]c2c1 | inconclusive: 39.8 µM [inhibitor, partial curve, poor fit] | –
c1ccc(-c2cc(-c3ccccc3)n3ncnc3n2)cc1 | inconclusive: 0.708 µM [inhibitor, partial curve, poor fit] | –
NC(=O)C1CCCCc2c1[nH]c1ccc(Cl)cc21 (stereo unspecified) | – | inactive: -16% [at 102 µM]
O=C(Nc1sc2c(c1C(=O)c1ccc(Cl)cc1)CCCC2)c1cccnc1 | inconclusive: 17.8 µM [inhibitor, partial curve, poor fit] | –
Cc1noc(C)c1C(=O)Nc1ccccc1N1CCOCC1 | – | inactive: 11.3%
O=C(c1cc(-c2ccc(Br)cc2)n[nH]1)N1CCN(S(=O)(=O)c2ccc(Br)s2)CC1 | – | inactive: 9.97%
Cc1ccc(-n2c(-c3cccnc3)n[nH]c2=S)c(C)c1 | active: 1.58 µM | –
CC1CCN(C(=O)CCS(=O)(=O)c2cc3c(cc2Cl)NC(=O)CO3)CC1 | inconclusive: 22.4 µM [inhibitor, single point] | –
Cc1ccc(Cl)cc1NC(=O)c1csnn1 | inconclusive: 15.8 µM [inhibitor, partial curve, poor fit] | –
CC(=O)OC1=C(C(C)=O)N(Cc2ccccc2)S(=O)(=O)c2ccccc21 | inconclusive: 25.1 µM [inhibitor, single point] | –
Cc1c(C(=O)N(Cc2ccccc2)Cc2cccs2)cnn1-c1ccc(Cl)cc1 | – | inactive: 92.5% [at 102 µM]
CCNc1ccc(Br)cc(C(=O)/C=C/c2ccc(Cl)cc2Cl)c1=O | active: 8.91 µM | –
COc1ccc(C(C)=O)cc1COC(=O)CCCN1C(=O)c2ccccc2C1=O | inconclusive: 28.2 µM [inhibitor, partial curve, poor fit] | –
COc1ccccc1N1CCN(C(c2cccs2)C(C)NS(=O)(=O)c2ccccc2)CC1 (stereo unspecified) | inconclusive: 25.1 µM [inhibitor, partial curve, poor fit] | –
CCOc1ccc(Cc2n[nH]c(=S)n2N)cc1 | inconclusive: 5.62 µM [inhibitor, full curve, poor fit] | –
CC1(C)CC(C(CC(=O)Nc2nccs2)c2ccccc2)CCO1 (stereo unspecified) | inconclusive: 79.4 µM [inhibitor, single point] | –
CNC(=S)N/N=C(\C)c1ccc2c(c1)OCO2 | inconclusive: 79.4 µM [inhibitor, single point] | –
O=c1cc(O)n(-c2ccccc2)c(=S)[nH]1 | active: 17.8 µM | –
Oc1c(C(c2cccc(F)c2)N2CCN(Cc3ccccc3)CC2)sc2ncnn12 (stereo unspecified) | inconclusive: 39.8 µM [inhibitor, single point] | –
CC(=O)Nc1nnc(SCC(=O)N2CCN(Cc3ccccc3)CC2)s1 | inconclusive: 11.2 µM [inhibitor, partial curve, poor fit] | –
O=Cc1cccc(OCc2cccc3ccccc23)c1 | – | inactive: 209% [at 102 µM]
COc1ccc(CC(=O)c2ccccc2C(=O)O)cc1 | inconclusive: 89.1 µM [inhibitor, single point] | –
N#CC1=C(N)Oc2n[nH]c(-c3cccs3)c2C1c1ccoc1 (stereo unspecified) | – | inconclusive: -69.6% [inhibitor]

Structure (SMILES) | Potency | activity, negative = inhibition
CCN(CC)CCNC(=S)Nc1ccc2nc(N3CCN(C)CC3)cc(C)c2c1 | active: 44.7 µM | –
CCc1ccc(NC(=O)Nc2cn(C)c(=O)c3ccccc23)cc1 | active: 10 µM | –
Cc1c(C(=O)N2CCCC2)oc2c1-c1[nH]ncc1CC2 | active: 50.1 µM | –
Oc1ccc2ccccc2c1SSc1c(O)ccc2ccccc12 | active: 6.7 µM | –
CCOC(=O)c1c(NC(=O)CCN2CCOCC2)sc(C)c1-c1ccccc1 | inconclusive: 50.1 µM [inhibitor, partial curve] | –
COC(=O)c1cccc(NC(=O)Cn2cnc3c2c(=O)n(C)c(=O)n3C)c1 | inconclusive: 2 µM [inhibitor, partial curve, poor fit] | –
CCN(CCCNC(=O)CSc1cc(=O)n(CC)c2ccccc12)c1ccccc1 | inconclusive: 22.4 µM [inhibitor, single point] | –
CCC(=O)c1cn(CC(=O)Nc2cccc(C)c2)c2ccccc12 | – | inactive: -2.61% [at 0.501 µM]
COc1ccc2cc(Br)ccc2c1CC(=O)NC(C)C | – | inactive: 4.95% [at 102 µM]
N#CC1=C(SCC(=O)NCc2ccccc2)NC(=O)CC1c1ccco1 (stereo unspecified) | inconclusive: 28.2 µM [inhibitor, single point] | –
CCc1ccc(NC(=O)CSc2nc3c(c(=O)n(C)c(=O)n3C)n2C)cc1 | – | inactive: -8.92% [at 102 µM]
O=C(CN1C(=O)NC2(CCCC2)C1=O)N1CCN(S(=O)(=O)c2ccccc2[N+](=O)[O-])CC1 | – | inactive: -2.57%
CN(C)S(=O)(=O)c1cccc(NC(=O)c2c[nH]c3ccccc23)c1 | inconclusive: 56.2 µM [inhibitor, single point] | –
COc1ccc(OC)c2sc(N(Cc3cccnc3)C(C)=O)nc12 | – | inactive: 2.86%
O=C(Nc1cccc(NC(=O)c2ccc(F)cc2)c1)c1ccc(F)cc1 | inconclusive: 100 µM [inhibitor, single point] | –
CCc1ccc(-n2nc(CO)c(C(=O)NC(C)c3ccc(Cl)cc3)n2)cc1 (stereo unspecified) | – | inactive: 8.06%
COc1ccc(SCc2cc(=O)c3ccc(C)c(C)c3[nH]2)cc1 | – | inactive: 4.13%
CCNCc1nc2cc(OC)c(OC)cc2c(=O)[nH]1 | inconclusive: 31.6 µM [inhibitor, partial curve, poor fit] | –
COc1ccc(CN2C(=O)CN=C2Nc2cc(C)ccc2C)cc1 | inconclusive: 89.1 µM [inhibitor, single point] | –
Cc1c(C)n(Cc2ccccc2)c2ccc(C(=O)N3CCN(c4ccccc4F)CC3)cc12 | inconclusive: 8.91 µM [inhibitor, partial curve, poor fit] | –
CCCn1c(SCC(=O)N(C)CC(=O)Nc2ccc(C)cc2)n[nH]c1=O | – | inactive: -2.16%
CSc1cccc(NC(=S)N(CCCN2CCCC2)Cc2cccn2Cc2ccc(Cl)cc2)c1 | active: 35.5 µM | –
CC(C(=O)NC(C)(C)C)N(Cc1cccs1)C(=O)CCN1CCc2ccccc21 (stereo unspecified) | inconclusive: 22.4 µM [inhibitor, partial curve, poor fit] | –
